{
  "source": "PubChem BioAssay AID504332",
  "about": "(National Center for Advancing Translational Sciences (NCATS), 2011)",
  "note": "The campaign covered roughly 350,000 compounds. About 31,000 (8.9%) were called active. The inconclusive results got no clear call from the source; some entries with a clear call stand among them for comparison. Calls follow the shape of the dose curve; as a rule, active = well fitted inhibition curve with a large enough effect; inconclusive = small, poorly fitted or top-dose-only effect; inactive = no such curve, though single readings can be large or run the other way. A potency beside an inconclusive call is a rough fit, not a confirmed value. % is scaled to controls: 0 for no effect and ±100 for the full control effect; potency is read from the fitted curve at half-maximal effect; tags tell the direction and shape of the fitted curve.",
  "data": [
    {"biological_target": "Histone-lysine N-methyltransferase EHMT2 (Homo sapiens) (UniProt Q96KQ7)", "sequence (Q96KQ7 whole entry, looked up)": "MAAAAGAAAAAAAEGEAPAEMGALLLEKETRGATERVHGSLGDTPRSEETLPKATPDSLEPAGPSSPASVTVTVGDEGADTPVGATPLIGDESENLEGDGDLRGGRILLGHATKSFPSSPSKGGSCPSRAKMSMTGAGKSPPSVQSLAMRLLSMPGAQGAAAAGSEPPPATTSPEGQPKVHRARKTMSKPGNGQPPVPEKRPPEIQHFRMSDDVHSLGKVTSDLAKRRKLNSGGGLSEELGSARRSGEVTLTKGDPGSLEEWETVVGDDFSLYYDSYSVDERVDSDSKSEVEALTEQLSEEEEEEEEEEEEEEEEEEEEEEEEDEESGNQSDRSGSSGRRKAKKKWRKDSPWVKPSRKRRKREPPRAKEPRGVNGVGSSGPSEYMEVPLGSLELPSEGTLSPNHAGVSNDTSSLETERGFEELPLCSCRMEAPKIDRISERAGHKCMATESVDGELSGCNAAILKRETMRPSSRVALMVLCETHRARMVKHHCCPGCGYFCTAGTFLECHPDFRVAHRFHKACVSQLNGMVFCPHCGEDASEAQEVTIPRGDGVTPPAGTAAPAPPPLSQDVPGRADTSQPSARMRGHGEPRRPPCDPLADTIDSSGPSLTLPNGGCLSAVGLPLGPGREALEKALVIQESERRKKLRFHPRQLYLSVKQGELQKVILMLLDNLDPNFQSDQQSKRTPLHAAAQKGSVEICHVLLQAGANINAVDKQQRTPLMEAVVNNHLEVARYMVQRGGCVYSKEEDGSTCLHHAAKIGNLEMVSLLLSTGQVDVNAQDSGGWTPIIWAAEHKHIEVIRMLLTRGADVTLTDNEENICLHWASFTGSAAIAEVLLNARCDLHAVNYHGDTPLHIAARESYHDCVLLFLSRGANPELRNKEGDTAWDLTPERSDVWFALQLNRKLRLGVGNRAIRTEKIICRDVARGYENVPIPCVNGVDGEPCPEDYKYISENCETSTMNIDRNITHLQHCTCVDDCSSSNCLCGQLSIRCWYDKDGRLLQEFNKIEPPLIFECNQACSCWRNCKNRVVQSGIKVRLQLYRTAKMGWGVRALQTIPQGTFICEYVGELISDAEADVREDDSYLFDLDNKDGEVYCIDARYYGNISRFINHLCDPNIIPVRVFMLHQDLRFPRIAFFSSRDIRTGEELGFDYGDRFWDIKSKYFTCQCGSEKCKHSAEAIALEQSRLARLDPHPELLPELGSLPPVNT", "assay": "qHTS Assay for Inhibitors of Histone Lysine Methyltransferase G9a; also: nearly all actives have a fitted effect of over 75% in size", "details": "G9a H3K9 monomethylation, AlphaScreen, 2 h; activity, negative = inhibition: at 59 µM (top of the series) unless noted", "in_short": "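Using a bead-based AlphaScreen, monomethylated H3K9 product from 2 h room-temperature reactions (G9a 20 nM, peptide 500 nM, SAM 20 uM) was detected with 0.5 ug/mL rabbit anti-H3K9me1 antibody.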", "values": [
      {"smiles": "CC(CC(=O)Nc1nc2ccccc2[nH]1)c1ccccc1", "note": "(configuration not stated)", "Potency": "inconclusive: 56.2 µM [inhibitor, partial curve]"},
      {"smiles": "Cc1ccccc1N1CCN(C(=O)c2cc(C3CC3)nn2-c2ccccc2)CC1", "activity, negative = inhibition": "inactive: 20.3%"},
      {"smiles": "O=C(Nc1ccc(Cl)cc1)c1ccc2ncsc2c1", "Potency": "active: 44.7 µM"},
      {"smiles": "N[C@H](C(=O)O)C1C(C(=O)O)C1C(=O)O", "note": "(some centres not stated)", "activity, negative = inhibition": "inactive: 22.8%"},
      {"smiles": "CCN(CC(=O)NC1CCS(=O)(=O)C1)C(=O)/C=C/c1cccs1", "note": "(configuration not stated)", "activity, negative = inhibition": "inactive: -10.2% [at 102 µM]"},
      {"smiles": "CC(C)CC(=O)Nc1nc2ccc(S(C)(=O)=O)cc2s1", "Potency": "active: 50.1 µM"},
      {"smiles": "CN(C)S(=O)(=O)c1cccc(C(=O)Nc2n[nH]c(C(F)(F)F)n2)c1", "activity, negative = inhibition": "inactive: 11.4% [at 102 µM]"},
      {"smiles": "N#CN=C1SCCS1", "Potency": "inconclusive: 79.4 µM [inhibitor, single point]"},
      {"smiles": "COCCNC(=O)c1ccc2c(c1)NC(=O)C(CS(=O)(=O)Cc1ccc(F)cc1Cl)N2", "note": "(configuration not stated)", "Potency": "inconclusive: 31.6 µM [inhibitor, partial curve, poor fit]"},
      {"smiles": "COc1cccc(CNC(=O)c2ccc3oc(=O)n(Cc4ccccc4)c3c2)c1", "Potency": "inconclusive: 39.8 µM [inhibitor, single point]"},
      {"smiles": "O=C(O)CSc1cc(NS(=O)(=O)c2cccc([N+](=O)[O-])c2)c2ccccc2c1O", "Potency": "active: 2.51 µM"},
      {"smiles": "CC(C)CC1C(C#N)=C(N)Oc2n[nH]c(-c3ccccc3)c21", "note": "(configuration not stated)", "Potency": "inconclusive: 31.6 µM [inhibitor, single point]"},
      {"smiles": "COc1ccc(/C=C2\\SC(=S)N(CCCC(=O)Nc3cccc(C(=O)O)c3)C2=O)cc1OC", "Potency": "inconclusive: 39.8 µM [inhibitor, single point]"},
      {"smiles": "COc1ccc(S(=O)(=O)CCC(=O)Nc2cc(C)ccc2OC)cc1", "Potency": "active: 28.2 µM"},
      {"smiles": "COc1ccc(NC(=O)CSC2=Nc3ccccc3C3=NC(Cc4ccccc4)C(=O)N23)cc1", "note": "(configuration not stated)", "activity, negative = inhibition": "inactive: -26.6%"},
      {"smiles": "COc1ccc(-c2nc(NC(=O)C3CC(=O)N(c4ccc5c(c4)OCCO5)C3)sc2C)cc1", "note": "(configuration not stated)", "Potency": "inconclusive: 3.55 µM [inhibitor, partial curve, poor fit]"},
      {"smiles": "Cc1nc(N2CCN(C(=O)c3ccco3)CC2)c2c3c(sc2n1)CCC3", "Potency": "active: 31.6 µM"},
      {"smiles": "Nc1c(C(=O)NCc2ccco2)sc2nc(N3CCOCC3)c3c(c12)CCCC3", "Potency": "inconclusive: 39.8 µM [inhibitor, partial curve, poor fit]"},
      {"smiles": "O=[N+]([O-])c1ccc(-c2cn(-c3ccccc3)c(=S)[nH]2)cc1", "Potency": "inconclusive: 0.708 µM [inhibitor, full curve, poor fit]"},
      {"smiles": "COc1ccc(OC)c(NC(=O)CCNS(=O)(=O)c2cccc3nonc23)c1", "Potency": "inconclusive: 39.8 µM [inhibitor, single point]"},
      {"smiles": "CCC(C)(C)NC(=O)C(c1ccccc1F)N(Cc1ccco1)C(=O)Cn1nnc2ccccc21", "note": "(configuration not stated)", "Potency": "inconclusive: 89.1 µM [inhibitor, partial curve, poor fit]"},
      {"smiles": "O=C(Nc1ccc(SC(F)F)cc1)C1=CC=CN2CCS(=O)(=O)N=C12", "Potency": "inconclusive: 5.62 µM [inhibitor, single point]"},
      {"smiles": "CCc1nnc(NC(=O)CSc2nnc(-c3cccnc3)n2CCc2ccccc2)s1", "activity, negative = inhibition": "inconclusive: -71.9% [inhibitor]"},
      {"smiles": "CCOc1ccccc1C(=O)NCC(=O)N(C)Cc1cccnc1", "Potency": "active: 39.8 µM"},
      {"smiles": "O=C(CSc1nnnn1-c1ccc2c(c1)OCO2)NCc1cccs1", "Potency": "inconclusive: 39.8 µM [inhibitor, partial curve]"},
      {"smiles": "O=C(CSc1cccc[n+]1[O-])N1CCCCCC1", "activity, negative = inhibition": "inactive: -31.9% [at 102 µM]"},
      {"smiles": "O=C(OCC(=O)N1CCc2ccccc21)C1=COCCO1", "Potency": "inconclusive: 3.16 µM [inhibitor, single point]"},
      {"smiles": "COc1ccc(C(=O)N2CCC3(CC2)CN(C(=O)NC(C)C)C3)cc1", "activity, negative = inhibition": "inactive: 6.42% [at 12.7 µM]"},
      {"smiles": "CC(=O)c1[nH]c(C)c(C(=O)NCc2ccc(Cl)cc2)c1C", "activity, negative = inhibition": "inactive: 2.64%"},
      {"smiles": "O=c1cc(O)n(-c2ccc(F)cc2)c(=S)[nH]1", "Potency": "active: 31.6 µM"},
      {"smiles": "CCN1C(=O)c2ccccc2S(=O)c2ccc(C(=O)N3CCN(c4ccc(F)cc4)CC3)cc21", "note": "(configuration not stated)", "activity, negative = inhibition": "inactive: 11.6%"},
      {"smiles": "Cc1ccc(N2C(=O)SC(N(CC(=O)O)c3cccc(C)c3)C2=O)cc1", "note": "(configuration not stated)", "Potency": "inconclusive: 89.1 µM [inhibitor, single point]"},
      {"smiles": "O=S(=O)(NCc1cccnc1)c1ccc(Br)c2ccccc12", "activity, negative = inhibition": "inactive: 13.1% [at 102 µM]"},
      {"smiles": "O=c1oc2ccccc2c(Nc2cccc(O)c2)c1[N+](=O)[O-]", "Potency": "inconclusive: 2.82 µM [inhibitor, partial curve, poor fit]"},
      {"smiles": "O=C1NC(=S)N/C1=C\\c1ccc(N2CCOCC2)cc1", "Potency": "inconclusive: 70.8 µM [inhibitor, partial curve]"},
      {"smiles": "Cc1ccc(S(=O)(=O)NNc2ccccc2)c(C)c1", "Potency": "active: 1 µM"},
      {"smiles": "COC(=O)C1=C(CSc2nc3c(cc2C#N)CN(C)CC3)OC(N)=C(C#N)C1c1ccc(F)cc1", "note": "(configuration not stated)", "Potency": "inconclusive: 28.2 µM [inhibitor, single point]"},
      {"smiles": "COc1ccc(NC(=S)Nn2cnnc2)cc1OC", "Potency": "active: 3.98 µM"},
      {"smiles": "Cc1cccc(NC(=O)CSc2nc3c(oc4ccccc43)c(=O)n2-c2ccccc2)c1C", "activity, negative = inhibition": "inactive: -0.55%"},
      {"smiles": "COc1ccc(-c2cc(C(=O)N3CC4(C)CC3CC(C)(C)C4)no2)cc1", "note": "(configuration not stated)", "Potency": "inconclusive: 89.1 µM [inhibitor, single point]"},
      {"smiles": "CC(=O)c1c(C(C)=O)c(C)n(NC(=O)c2ccncc2)c1C", "activity, negative = inhibition": "inactive: 11.6% [at 102 µM]"},
      {"smiles": "CCOc1ccc(NC(=O)COC(=O)c2cc(S(=O)(=O)N3CCCC3)ccc2C)cc1", "Potency": "inconclusive: 31.6 µM [inhibitor, single point]"},
      {"smiles": "CCC1(C)OC(=O)N2CCc3c(C)[nH]c4c(C)ccc(c34)C21C", "note": "(configuration not stated)", "Potency": "inconclusive: 35.5 µM [inhibitor, single point]"},
      {"smiles": "Cc1ccc(C(=O)NCc2ccc(N3CCN(C)CC3)cc2)cc1C", "Potency": "inconclusive: 79.4 µM [inhibitor, single point]"},
      {"smiles": "Cc1ccc(OCCSc2nc(-c3cccs3)nc3cc(=O)[nH]n23)cc1Cl", "activity, negative = inhibition": "inactive: 13%"},
      {"smiles": "CN1CCN(c2ncc3nc(-c4cc(F)cc(F)c4)c(=O)n(-c4ccccc4)c3n2)CC1", "activity, negative = inhibition": "inactive: -44.6% [at 12.7 µM]"},
      {"smiles": "CCn1nc(C)c(CN2CCc3c([nH]c4ccccc34)C2C(C)(C)C)c1C", "note": "(configuration not stated)", "Potency": "inconclusive: 44.7 µM [inhibitor, partial curve, poor fit]"}
    ]}
  ]
}
